This list was built around the results that the source calls inconclusive (neither active nor inactive); the mix of calls is not that of the screen. No potency is given beside an inconclusive call; the fits are too rough. Calls of active or inactive are those of the source. Unless noted, calls follow the shape of the dose curve; as a rule, active = well fitted inhibition curve with a large enough effect; inconclusive = small, poorly fitted or top-dose-only effect, or effect the other way; inactive = flat fitted curve, though single readings scatter.
Biological target: ATPase family AAA domain-containing protein 5 (Homo sapiens) (UniProt Q96QE3)
Test: Validation screen for small molecules that inhibit ELG1-dependent DNA repair in human embryonic kidney (HEK293T) cells expressing luciferase-tagged ELG1 (AID 493107); also: nearly all actives have a fitted effect of over 70% in size
Details: HEK293T ELG1-luciferase level, luminescence, 5-fluorouridine co-treatment, 16 h; series mostly up to 46.1 µM
How it was run: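 Quantitative HTS in HEK293T cells carrying luciferase-tagged ELG1, stimulated with 5-fluorouridine alongside compound for 16 hr. Loss of luciferase signal marks inhibition of ELG1 response.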
Potency is read from the fitted curve at half-maximal effect; tags tell the direction and shape of the fitted curve.

Chain of UniProt Q96QE3 (Q96QE3 whole entry, looked up, the tested form may be a part): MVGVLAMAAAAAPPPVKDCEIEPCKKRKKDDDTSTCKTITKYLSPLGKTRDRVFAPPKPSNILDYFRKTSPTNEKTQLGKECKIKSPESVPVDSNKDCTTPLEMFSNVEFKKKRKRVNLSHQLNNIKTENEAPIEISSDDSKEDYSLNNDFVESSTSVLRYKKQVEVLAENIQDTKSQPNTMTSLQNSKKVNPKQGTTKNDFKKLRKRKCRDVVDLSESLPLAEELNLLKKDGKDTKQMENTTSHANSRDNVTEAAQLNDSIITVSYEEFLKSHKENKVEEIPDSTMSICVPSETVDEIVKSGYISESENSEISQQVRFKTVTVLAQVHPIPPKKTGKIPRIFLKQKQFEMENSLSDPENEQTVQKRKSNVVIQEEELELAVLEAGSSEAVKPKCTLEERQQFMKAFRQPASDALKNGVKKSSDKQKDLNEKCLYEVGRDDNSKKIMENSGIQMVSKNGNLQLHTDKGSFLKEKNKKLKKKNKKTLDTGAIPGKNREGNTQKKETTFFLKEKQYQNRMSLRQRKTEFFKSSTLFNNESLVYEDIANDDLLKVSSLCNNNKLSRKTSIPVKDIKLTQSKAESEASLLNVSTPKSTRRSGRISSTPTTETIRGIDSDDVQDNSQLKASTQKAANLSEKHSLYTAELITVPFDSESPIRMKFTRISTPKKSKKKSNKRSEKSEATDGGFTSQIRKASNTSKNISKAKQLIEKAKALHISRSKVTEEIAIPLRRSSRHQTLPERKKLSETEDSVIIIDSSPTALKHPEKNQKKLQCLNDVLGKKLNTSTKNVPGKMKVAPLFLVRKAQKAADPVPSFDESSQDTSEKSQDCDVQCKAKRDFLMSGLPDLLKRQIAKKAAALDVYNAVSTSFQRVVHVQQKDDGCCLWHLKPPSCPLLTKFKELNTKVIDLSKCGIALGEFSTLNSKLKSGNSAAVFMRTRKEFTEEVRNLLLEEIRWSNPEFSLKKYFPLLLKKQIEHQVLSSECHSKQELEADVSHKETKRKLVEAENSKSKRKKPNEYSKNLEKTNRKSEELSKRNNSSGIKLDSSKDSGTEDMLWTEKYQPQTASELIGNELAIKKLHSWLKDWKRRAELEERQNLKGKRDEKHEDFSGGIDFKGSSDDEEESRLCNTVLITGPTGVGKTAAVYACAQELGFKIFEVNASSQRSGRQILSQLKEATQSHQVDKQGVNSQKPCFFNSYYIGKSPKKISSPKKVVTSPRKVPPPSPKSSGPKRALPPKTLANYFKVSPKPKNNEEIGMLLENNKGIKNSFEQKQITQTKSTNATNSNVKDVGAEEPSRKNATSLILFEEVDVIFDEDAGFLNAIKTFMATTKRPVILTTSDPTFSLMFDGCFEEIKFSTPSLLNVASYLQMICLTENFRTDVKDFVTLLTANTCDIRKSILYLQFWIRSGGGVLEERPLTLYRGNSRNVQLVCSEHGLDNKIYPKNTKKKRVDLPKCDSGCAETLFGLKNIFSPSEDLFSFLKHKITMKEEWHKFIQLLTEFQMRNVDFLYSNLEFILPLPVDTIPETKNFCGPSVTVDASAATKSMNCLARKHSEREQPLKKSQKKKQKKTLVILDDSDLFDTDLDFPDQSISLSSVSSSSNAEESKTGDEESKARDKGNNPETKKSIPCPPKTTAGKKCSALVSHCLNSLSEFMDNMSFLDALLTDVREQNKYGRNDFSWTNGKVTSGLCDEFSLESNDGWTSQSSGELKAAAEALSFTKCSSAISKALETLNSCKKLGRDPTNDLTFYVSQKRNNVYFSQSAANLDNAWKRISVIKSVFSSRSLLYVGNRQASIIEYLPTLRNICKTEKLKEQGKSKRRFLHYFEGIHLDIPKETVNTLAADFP

Q: For `Cc1c(C(=O)c2cccc3ccccc23)c2cccc3c2n1[C@H](CN1CCOCC1)CO3`, which Potency is on record?
A: inconclusive [inhibitor, single point]

Q: Which Potency does the source give for `CCC1(C2=NCCN2)Cc2ccccc2O1` (stereo not drawn) here?
A: inconclusive [activator, partial curve, poor fit]

Q: Which Potency does the source give for `O=c1c(O)c(-c2ccc(O)c(O)c2)oc2cc(O)cc(O)c12` here?
A: active: 20.6 µM

Q: For `c1ccc(CCCN2CCN(CCOC(c3ccccc3)c3ccccc3)CC2)cc1`, which Potency is on record?
A: inconclusive [inhibitor, single point]

Q: With `CN1C[C@H](CNC(=O)OCc2ccccc2)C[C@@H]2c3cccc4c3c(cn4C)C[C@H]21` as the molecule, how does the Potency read?
A: inconclusive [inhibitor, single point]

Q: Which Potency does the source give for `NC(N)=Nc1ccc2[nH]c3c(c2c1)C[C@@]1(O)[C@H]2Cc4ccc(O)c5c4[C@@]1(CCN2CC1CC1)[C@H]3O5` here?
A: inconclusive [inhibitor, single point]

Q: Which Potency does the source give for `O=c1c2ccccc2[se]n1-c1ccccc1` here?
A: inconclusive [inhibitor, single point]

Q: Which Potency does the source give for `Cc1cc2c(C(C)C)c(O)c(O)c(C=O)c2c(O)c1-c1c(C)cc2c(C(C)C)c(O)c(O)c(C=O)c2c1O` here?
A: active: 8.2 µM

Q: For `C/C=C(/C)C(=O)O[C@H]1C(C)=C2[C@H]([C@@H]1OC(=O)CCCCCCC)[C@@](C)(OC(C)=O)C[C@H](OC(=O)CCC)[C@@]1(O)[C@H]2OC(=O)[C@@]1(C)O`, which Potency is on record?
A: inconclusive [inhibitor, single point]

Q: With `CC(=O)[C@H]1CC[C@H]2[C@@H]3CC[C@H]4C[C@H](O)CC[C@]4(C)[C@H]3C(=O)C[C@]12C` as the molecule, how does the Potency read?
A: inactive

Q: For `O=C(CCCN1CCC2(CC1)C(=O)NCN2c1ccccc1)c1ccc(F)cc1`, which Potency is on record?
A: inconclusive [inhibitor, single point]

Q: Which Potency does the source give for `C[C@@H]1O[C@@H](O[C@H]2C[C@@H](O)[C@]3(CO)[C@H]4[C@H](O)C[C@]5(C)[C@@H](C6=CC(=O)OC6)CC[C@]5(O)[C@@H]4CC[C@]3(O)C2)[C@H](O)[C@H](O)[C@H]1O` here?
A: active: 0.092 µM

Q: For `CN[C@@H]1C[C@@H](c2ccc(Cl)c(Cl)c2)c2ccccc21`, which Potency is on record?
A: active: 23.1 µM

System: not listed separately
Test: Nrf2 qHTS screen for inhibitors: Validation (AID 493153; active = well fitted inhibition curve with a large enough effect in the main read-out, with a control signal flat, not every such curve was filed as active; inconclusive = small, poorly fitted or top-dose-only effect, or effect the other way, or a change in a side signal; inactive = no such curve, though single readings can be large or run the other way)
Details: A549 ARE-Fluc reporter, luciferase luminescence, 18-24 h; series mostly up to 46.1 µM
How it was run: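 Dose-response validation uses reporter A549 cells with firefly luciferase under an antioxidant response element. Compounds stay on cells 18-24 h at 37°C, and luminescence indicates Nrf2-driven transcription.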

Q: Which Potency does the source give for `CN1C[C@H](CNC(=O)OCc2ccccc2)C[C@@H]2c3cccc4c3c(cn4C)C[C@H]21` here?
A: inconclusive [inhibitor, partial curve, poor fit]

Q: With `CC(=O)[C@H]1CC[C@H]2[C@@H]3CC[C@H]4C[C@](C)(O)CC[C@]4(C)[C@H]3CC[C@]12C` as the molecule, how does the Potency read?
A: inconclusive [inhibitor, partial curve, poor fit]

Q: For `CC(=O)[C@H]1CC[C@H]2[C@@H]3CC[C@H]4C[C@H](O)CC[C@]4(C)[C@H]3C(=O)C[C@]12C`, which Potency is on record?
A: inconclusive [inhibitor, partial curve, poor fit]

Q: For `Cc1ncc(CNC(=O)N(CCCl)N=O)c(N)n1`, which Potency is on record?
A: inconclusive [inhibitor, partial curve, poor fit]

Q: Which Potency does the source give for `CC(C)c1cccc(C(C)C)c1O` here?
A: inactive

Source: PubChem BioAssay (NCATS)
